According to PubChem BioAssay AID493208 (National Center for Advancing Translational Sciences (NCATS), 2011):
Out of some 44,000 compounds screened, about 340 (0.77%) were called active. Not shown: some 5% with an inconclusive outcome. Calls come from the whole dose curve; as a rule, active = well fitted inhibition curve with a large enough effect; inconclusive = small, poorly fitted or top-dose-only effect; inactive = flat fitted curve, though single readings scatter. The list shows a part of the results.

test: Acumen qHTS Assay for Inhibitors of the mTORC1 Signaling Pathway in MEF (Tsc2-/-, p53-/-) Cells: Sytravon; settings: phospho-rpS6 immunofluorescence/PI, 24 h; series mostly up to 38.3 µM; activity change, negative = inhibition: at the top concentration;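 note: plate controls were DMSO for no effect and rapamycin for full effect; nearly all actives have a fitted effect of over 50% in size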
Method in brief: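 Tsc2-/-, p53-/- MEFs (empty-vector stable line) in DMEM + 10% FBS were treated with compounds 24 h at 37 degree Celsius, fixed, and immunostained for phospho-rpS6 (Alexa-488) with propidium iodide counterstain. Laser-scanning cytometry gave % positive cells, normalized against 7.5 nM rapamycin and DMSO.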

Activity change, negative = inhibition, inactive:
O=C(CSC1=Nc2ccccc2N=C(c2ccc(F)cc2)C1)Nc1cc(F)ccc1F -13.9%
COc1ccc(Cl)cc1NC(=O)CN1c2ccccc2S(=O)(=O)c2ccccc21 -20.5%
COCCCNC(=O)c1c(NC(=O)c2cc(=O)c3cc(C)c(C)cc3o2)sc2c1CCCC2 -6.91%
CCCCNc1cc(NC2CCCCC2)c2c3c(onc13)-c1ccccc1C2=O -0.129%
Cc1ccc(SCC(=O)Nc2cccc(-c3nc4cc(Cl)ccc4o3)c2C)cc1 -5.65%
CCCOc1ccc(CNC(=O)C2CCN(c3nc4ccccc4nc3C(F)(F)F)CC2)cc1 3.24%
CCn1cc2nc(SCc3cccc(OC)c3)n(Cc3ccc(Cl)cc3)c(=O)c2n1 -5.45%
COC(=O)c1cc2sccc2n1Cc1ccccc1 -4.33%
CC1=C(C(=O)Nc2ccccc2Cl)C(c2cccs2)n2ncnc2N1 (configuration not stated) -14.5%
O=C(CCC1N=C2c3ccccc3N=C(SCc3cccc(F)c3)N2C1=O)NC1CCCCC1 (configuration not stated) -0.889%
Cc1cc(NS(=O)(=O)c2ccc(NC(=O)COc3c(C)cc(Br)cc3C)cc2)no1 -0.938%
O=S(=O)(NCc1ccccc1)c1ccc2[nH]c3c(c2c1)CCCCC3 -25%
COc1cccc(NS(=O)(=O)c2ccc3[nH]cc(C(=O)NC4CCCCC4)c(=O)c3c2)c1 0.284%
Cc1c(CNC(C)c2ccccc2)c(C(=O)O)c(C)n1Cc1c(F)cccc1Cl (configuration not stated) -3.76%
CCOC(=O)C1CCCN(C(=O)c2cc3c(=O)n(C)c4ccccc4c3s2)C1 (configuration not stated) -8.31%
CCOc1ccc(-c2c(C)nn3c(C)c(C(=O)NCC(C)c4ccccc4)cnc23)cc1OCC (configuration not stated) -16.5%
COc1cc(-c2noc(-c3nnn(-c4ccc(Cl)cc4)c3C)n2)cc(OC)c1OC -0.796%
CCc1ccc(N2C(=O)CS(=O)(=O)C23C(=O)N(Cc2ccccc2)c2ccccc23)cc1 (configuration not stated) 8.83%
Cc1ccc(-n2nc(CO)c(C(=O)NCCc3ccccc3)n2)cc1C -5.55%
O=C(Nc1ccccc1C(F)(F)F)c1noc2c1CCCCC2 3.6%
CCc1cccc(C)c1Nc1c(-c2ccc(N3CCOCC3)cc2)nc2ncccn12 -6.36%
CC(=O)c1ccc(NC(=O)C2CCCN(S(=O)(=O)c3cn(C)cn3)C2)cc1 (configuration not stated) 5.32%
Cc1c2cnn(CC(=O)Nc3ccc(F)cc3F)c(=O)c2c(C)n1Cc1cccc(Cl)c1 -8.1%
CCOC(=O)c1cc2c(=O)n3ccccc3nc2n(Cc2ccco2)c1=NC(=O)c1ccccc1OC -13.8%
Cc1ccc(NC(=O)C2CCCN(c3nnc(C)c4c(C)n(-c5ccccc5)nc34)C2)cc1Cl (configuration not stated) 1.25%
O=C(Cn1c(=O)n(-c2ccc(F)cc2)c(=O)c2sccc21)Nc1cccc(C(F)(F)F)c1 -1.73%
COc1ccc(-n2nc3c(c2NC(=O)C(=O)N2CCN(C)CC2)CSC3)cc1 -1.86%
COc1ccc(Cn2c(C(=O)O)c(CNCCc3ccccc3Cl)c3ccc(C)cc32)cc1 -11.9%
COc1cccc(CNC(=O)Cn2c(=O)oc3cc(S(=O)(=O)N4CCC(C)CC4)ccc32)c1 -16.4%
Cc1ccc(-n2nc3c(=O)n(C(C)C(=O)O)nc(C)c3c2C)cc1 (configuration not stated) -3.1%
CCC(=O)N1CCc2cc(S(=O)(=O)CCC(=O)NCc3ccc(F)cc3)ccc21 -3.21%
CC(C)NC(=O)c1cc2c(Cl)nc3ccccc3c2s1 -0.0482%
Cc1ccc(CNC(=O)c2ccc3c(c2)N(Cc2cccc(Cl)c2)C(=O)CS3)cc1 0.798%
Cc1cc(O)c(C(=O)c2cnc3c(c2)COc2ccccc2-3)cc1Cl -2.63%
CCOc1ccc(NC(=O)Cn2cc(C(=O)c3ccc(C)c(C)c3)c(=O)c3cc(F)ccc32)cc1 -2.43%
Cc1ccc(Cl)cc1NC(=O)Cn1c(=O)n(CCC(=O)N2CCc3ccccc3C2)c(=O)c2ccccc21 0.391%
COc1cc(NC(=O)CSc2nc3nc(C)c(Cc4ccccc4)c(C)n3n2)cc(OC)c1 0.489%
CCN(c1ccc(C)cc1C)S(=O)(=O)c1nnc(NC(=O)CC(C)C)s1 1.2%
CCN(CC)c1nn2c(=O)c(C(=O)NCc3cccc(OC)c3OC)cnc2s1 -1.99%
COc1cccc(NC(=O)CSc2cc(C)[nH]c(=O)n2)c1 0.448%
CC1N=C2c3ccccc3N=C(SCC(=O)NCc3ccc(Cl)cc3)N2C1=O (configuration not stated) 7.39%
COc1cccc(-c2n[nH]c3c2C(c2cccc(O)c2)N(C)C3=O)c1 (configuration not stated) -5.18%
CCS(=O)(=O)N1CC(=O)N(c2cccc(C)c2C)C(C)(C(=O)NC2CCCCCC2)C1 (configuration not stated) 1.35%
COc1ccc(CNC(=O)c2cnn(-c3ccc(OC)cc3)c2C2CCN(C(=O)OC(C)(C)C)CC2)cc1 2.53%
Cc1nc(SCC(=O)Nc2ccccc2Cl)cc(-c2ccccc2)n1 -9.35%
Cc1c2cnn(-c3ccccc3)c(=O)c2c(C)n1CC(=O)N1CCN(c2cccc(Cl)c2)CC1 -1.83%
CCCCOc1ccc(S(=O)(=O)Nc2ccc(-c3ccc(N4CCCCC4)nn3)cc2)cc1 1.89%
Cc1cccc2c1-c1sc(C(=O)Nc3ccccc3C(N)=O)cc1CO2 -1%
Cc1ccccc1OCC(=O)NCC(c1ccc(Cl)cc1)N1CCOCC1 (configuration not stated) -5.73%
Cc1c(C(=O)N(C)c2ccccc2)sc2nc(-c3ccc(F)cc3)cn12 -0.223%
CCc1cc2c(cc3c(=O)n(CC(=O)NC4CCC(C)CC4)nc(CC)n32)s1 (configuration not stated) -2.28%
O=C(Nc1cccc2cccnc12)c1cccc2c(Br)cccc12 6.15%
O=C1c2oc3ccccc3c(=O)c2C(c2ccccc2F)N1Cc1ccc2c(c1)OCO2 (configuration not stated) -6.9%
Cc1ccc2onc(CNC(=O)N(C)Cc3ccccc3)c2c1 -5.44%
CCN(CC)CCNC(=O)c1sc2nc(C)cc(C)c2c1-n1cccc1 0%
COc1ccc(-n2c(Cc3ccccc3)nnc2SCc2nc(-c3ccccc3C)no2)cc1 3.45%
CCc1ccccc1NC(=O)Cn1c(C(=O)OC)cc2oc(C)cc21 -1.88%
CCOC(=O)c1ccc(NC(=O)c2cccc3c(=O)c4c([nH]c23)CCCC4)cc1 0.355%
COc1ccc(NC(=O)Cn2ccn(Cc3ccccc3)c(=O)c2=O)cc1Cl 8.88%
CN(C(=O)CSc1cn(CC(=O)N2CCCC2)c2ccccc12)c1ccccc1 -4.9%
O=C(Nc1ccc(Br)cc1F)c1ccc2nc(CCc3ccccc3)oc2c1 -0.536%
O=C1c2[nH]nc(-c3ccccc3O)c2C(c2cccc(Br)c2)N1Cc1ccncc1 (configuration not stated) -24.6%
